Changes are numbered by the printed parent chain; changes in the protein carry UniProt numbers. The list shows a part of the results.

T1: RBFOX1 RRM (Homo sapiens, UniProt Q9NWB1 109-208)
T1 sequence: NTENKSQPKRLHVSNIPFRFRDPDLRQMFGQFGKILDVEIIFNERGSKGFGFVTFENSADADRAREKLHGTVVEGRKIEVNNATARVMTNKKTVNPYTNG

B1: GCUUCUU (DNA:RNA)
RNA: GGGAGACCGGAAUUCAGAUUGUCCGCUUCUUUUAAAUCCCGUCGUAGCCACCA
DNA 1: CAATCTGAATTCCGGTCTCCC
DNA 2: TGGTGGCTACGACGGGATT
B2: GGUUCUA (DNA:RNA)
RNA: B1 RNA with C26G, U31A
DNA 1: CAATCTGAATTCCGGTCTCCC
DNA 2: TGGTGGCTACGACGGGATT
B3: UUGCUCG (DNA:RNA)
RNA: GGGAGACCGGAAUUCAGAUUGUCCUUGCUCGUUAAAUCCCGUCGUAGCCACCA
DNA 1: CAATCTGAATTCCGGTCTCCC
DNA 2: TGGTGGCTACGACGGGATT
B4: ACAAAGC (DNA:RNA)
RNA: B1 RNA with G25A, U27A, U28A, C29A, U30G, U31C
DNA 1: CAATCTGAATTCCGGTCTCCC
DNA 2: TGGTGGCTACGACGGGATT
B5: UACGAUA (DNA:RNA)
RNA: B1 RNA with G25U, C26A, U27C, U28G, C29A, U31A
DNA 1: CAATCTGAATTCCGGTCTCCC
DNA 2: TGGTGGCTACGACGGGATT
B6: CUGUGAU (DNA:RNA)
RNA: B1 RNA with G25C, C26U, U27G, C29G, U30A
DNA 1: CAATCTGAATTCCGGTCTCCC
DNA 2: TGGTGGCTACGACGGGATT
B7: CGAAUAC (DNA:RNA)
RNA: B3 RNA with U25C, U26G, G27A, C28A, C30A, G31C
DNA 1: CAATCTGAATTCCGGTCTCCC
DNA 2: TGGTGGCTACGACGGGATT
B8: ACGAGGA (DNA:RNA)
RNA: B1 RNA with G25A, U27G, U28A, C29G, U30G, U31A
DNA 1: CAATCTGAATTCCGGTCTCCC
DNA 2: TGGTGGCTACGACGGGATT
B9: AAUCGUU (DNA:RNA)
RNA: B1 RNA with G25A, C26A, U28C, C29G
DNA 1: CAATCTGAATTCCGGTCTCCC
DNA 2: TGGTGGCTACGACGGGATT
B10: CAGUGGC (DNA:RNA)
RNA: B1 RNA with G25C, C26A, U27G, C29G, U30G, U31C
DNA 1: CAATCTGAATTCCGGTCTCCC
DNA 2: TGGTGGCTACGACGGGATT
B11: UCUCGUC (DNA:RNA)
RNA: B1 RNA with G25U, U28C, C29G, U31C
DNA 1: CAATCTGAATTCCGGTCTCCC
DNA 2: TGGTGGCTACGACGGGATT
B12: AAUGUCG (DNA:RNA)
RNA: B3 RNA with U25A, U26A, G27U, C28G
DNA 1: CAATCTGAATTCCGGTCTCCC
DNA 2: TGGTGGCTACGACGGGATT
B13: GUCAAUG (DNA:RNA)
RNA: B1 RNA with C26U, U27C, U28A, C29A, U31G
DNA 1: CAATCTGAATTCCGGTCTCCC
DNA 2: TGGTGGCTACGACGGGATT
B14: GCCUGAC (DNA:RNA)
RNA: B1 RNA with U27C, C29G, U30A, U31C
DNA 1: CAATCTGAATTCCGGTCTCCC
DNA 2: TGGTGGCTACGACGGGATT
B15: GGGACUA (DNA:RNA)
RNA: B1 RNA with C26G, U27G, U28A, U31A
DNA 1: CAATCTGAATTCCGGTCTCCC
DNA 2: TGGTGGCTACGACGGGATT
B16: UUUGUGU (DNA:RNA)
RNA: B3 RNA with G27U, C28G, C30G, G31U
DNA 1: CAATCTGAATTCCGGTCTCCC
DNA 2: TGGTGGCTACGACGGGATT
B17: GCUAGAA (DNA:RNA)
RNA: B1 RNA with U28A, C29G, U30A, U31A
DNA 1: CAATCTGAATTCCGGTCTCCC
DNA 2: TGGTGGCTACGACGGGATT
B18: UGUACUU (DNA:RNA)
RNA: B1 RNA with G25U, C26G, U28A
DNA 1: CAATCTGAATTCCGGTCTCCC
DNA 2: TGGTGGCTACGACGGGATT
B19: CUCUAAG (DNA:RNA)
RNA: B3 RNA with U25C, G27C, C28U, U29A, C30A
DNA 1: CAATCTGAATTCCGGTCTCCC
DNA 2: TGGTGGCTACGACGGGATT
B20: UCAGGUC (DNA:RNA)
RNA: B1 RNA with G25U, U27A, U28G, C29G, U31C
DNA 1: CAATCTGAATTCCGGTCTCCC
DNA 2: TGGTGGCTACGACGGGATT
B21: UGCAGUG (DNA:RNA)
RNA: B3 RNA with U26G, G27C, C28A, U29G, C30U
DNA 1: CAATCTGAATTCCGGTCTCCC
DNA 2: TGGTGGCTACGACGGGATT
B22: CUCGUUU (DNA:RNA)
RNA: B1 RNA with G25C, C26U, U27C, U28G, C29U
DNA 1: CAATCTGAATTCCGGTCTCCC
DNA 2: TGGTGGCTACGACGGGATT
B23: AGGUCAA (DNA:RNA)
RNA: B1 RNA with G25A, C26G, U27G, U30A, U31A
DNA 1: CAATCTGAATTCCGGTCTCCC
DNA 2: TGGTGGCTACGACGGGATT
B24: UCAGGCG (DNA:RNA)
RNA: B3 RNA with U26C, G27A, C28G, U29G
DNA 1: CAATCTGAATTCCGGTCTCCC
DNA 2: TGGTGGCTACGACGGGATT
B25: GUGCAUU (DNA:RNA)
RNA: B1 RNA with C26U, U27G, U28C, C29A
DNA 1: CAATCTGAATTCCGGTCTCCC
DNA 2: TGGTGGCTACGACGGGATT
B26: GGGGAGU (DNA:RNA)
RNA: B1 RNA with C26G, U27G, U28G, C29A, U30G
DNA 1: CAATCTGAATTCCGGTCTCCC
DNA 2: TGGTGGCTACGACGGGATT
B27: GAUUUCC (DNA:RNA)
RNA: B1 RNA with C26A, C29U, U30C, U31C
DNA 1: CAATCTGAATTCCGGTCTCCC
DNA 2: TGGTGGCTACGACGGGATT
B28: CUGGUGC (DNA:RNA)
RNA: B3 RNA with U25C, C28G, C30G, G31C
DNA 1: CAATCTGAATTCCGGTCTCCC
DNA 2: TGGTGGCTACGACGGGATT
B29: UGGUGAA (DNA:RNA)
RNA: B3 RNA with U26G, C28U, U29G, C30A, G31A
DNA 1: CAATCTGAATTCCGGTCTCCC
DNA 2: TGGTGGCTACGACGGGATT
B30: GGGCGCU (DNA:RNA)
RNA: B3 RNA with U25G, U26G, U29G, G31U
DNA 1: CAATCTGAATTCCGGTCTCCC
DNA 2: TGGTGGCTACGACGGGATT
B31: UGGCAGA (DNA:RNA)
RNA: B3 RNA with U26G, U29A, C30G, G31A
DNA 1: CAATCTGAATTCCGGTCTCCC
DNA 2: TGGTGGCTACGACGGGATT

In the assay the target is T1, RBFOX1 RRM. As to the kind of experiment: EMSA; HiTS-Eq, 1 nM pool, 10 min; buffer printed only for the single-RNA assays: 10 mM Tris pH 7.5, 150 mM NaCl, 3.4 mM EDTA, 0.001% NP-40, 30 C. Particulars: tags: His6 N-terminal (pET28a); label: 5' 32P. An outline of the steps: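 Purified RbFox RRM, wild type or mutant, was incubated for 10 min in 50 µL with 1 nM of a 5′-radiolabelled RNA pool carrying 7 randomized nucleotides, whose flanks were annealed to DNA oligonucleotides, over a series of increasing protein concentrations. Unbound RNA was resolved on 8% native PAGE, cut out, reverse-transcribed, barcoded by PCR and sequenced on an Illumina HiSeq 2500. Relative association constants were derived from changes in read counts for each RNA species versus the control reaction and normalised to the cognate motif.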
B1: the binding signal was 0.015 KA relative to UGCAUGU.
To B2 belongs 0.0124 KA relative to UGCAUGU.
Under B3 stands 0.0477 KA relative to UGCAUGU.
On to B4, for which the binding signal was 0.000899 KA relative to UGCAUGU.
Under B5 stands 0.0048 KA relative to UGCAUGU.
To B6 belongs 0.0141 KA relative to UGCAUGU.
For B7, the binding signal was 0.00404 KA relative to UGCAUGU.
Under B8 stands 0.00366 KA relative to UGCAUGU; under B9, 0.00738 KA relative to UGCAUGU; under B10, 0.00648 KA relative to UGCAUGU.
Under B11 stands 0.0109 KA relative to UGCAUGU; under B12, 0.0133 KA relative to UGCAUGU.
To B13 belongs 0.0103 KA relative to UGCAUGU.
For the molecule B14, the binding signal is 0.0331 KA relative to UGCAUGU.
To B15 belongs 0.0294 KA relative to UGCAUGU; to B16, 0.0289 KA relative to UGCAUGU; to B17, 0.0212 KA relative to UGCAUGU.
B18: the binding signal is 0.0109 KA relative to UGCAUGU.
To B19 belongs 0.00696 KA relative to UGCAUGU.
To B20 belongs 0.0155 KA relative to UGCAUGU; to B21, 0.0254 KA relative to UGCAUGU; to B22, 0.0104 KA relative to UGCAUGU.
Consider B23, for which the binding signal was 0.0074 KA relative to UGCAUGU.
To B24 belongs 0.0144 KA relative to UGCAUGU.
For the molecule B25, the binding signal is 0.0263 KA relative to UGCAUGU.
To B26 belongs 0.0316 KA relative to UGCAUGU.
Under B27 stands 0.0219 KA relative to UGCAUGU; under B28, 0.0264 KA relative to UGCAUGU.
With B29, the binding signal was 0.014 KA relative to UGCAUGU.
In the case of B30, the binding signal is 0.0216 KA relative to UGCAUGU.
As for B31, the binding signal is 0.0265 KA relative to UGCAUGU.

For the origin of these results see paper PMC9911399, “Two distinct binding modes provide the RNA-binding protein RbFox with extraordinary sequence specificity”.
